Measured values from the supplement of paper PMC11417369.
± gives the standard deviation of the averaged measurements. This is one part of the list.

tested on: PfAP2-EXP AP2 domain (GST-tagged); assay: gcPBM binding intensity (ln(normalized median fluorescence intensity)); higher = stronger DNA binding
Procedure, shortened: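 Plasmodium falciparum DNA-binding domains carrying a GST tag were expressed in E. coli and applied for 1 h, at about 25 μg on average, to an Agilent 4 × 180k array. The array held primer-extended double-stranded 36-bp intergenic genomic probes together with negative controls, and binding took place in 1× PBS with 1% milk, 0.2 mg/ml BSA, 0.5% salmon testes DNA and 0.03% Triton X-100. An Alexa488 anti-GST antibody detected bound protein, and the array was scanned at 488 nm. Binding intensity is taken as the highest Masliner-normalised natural-log median intensity across replicate spots of either probe orientation.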

Sequence | gcPBM binding intensity (ln)
AAGAATACACCACGCACACACACTTGAGAAAAAATA [CACACA_site3828] | 8.61 ± 0.52
ATATTTTTATGATGTATCCAAGAAATGGAACTATAT [CACACA_negctrl_site1268] | 8.21 ± 0.38
AAGATTAATATTTTATGTACATATGTAATATATATG [XGTACX_site4367] | 8.37 ± 0.28
ATTTTAGATATCCTGCGTACACAAATTGCTTTATTT [XGTACX_site7149] | 9.13 ± 0.36
TTCTTTGTGGTATAGATACACACTATATTAATATGA [CACACA_site2150] | 8.85 ± 0.46
ATATATACCTAAGACACACACATATAGATTTATATA [CACACA_site6498] | 8.4 ± 0.4
TGTATAAGTGCCGTTATACACACGTTATATAAATAT [CACACA_site438] | 8.5 ± 0.41
TATCTTATTTTAAAAGTGCATGGAAAGGGGTTTTTG | 8.49 ± 0.38
TATATATACATATACACACACACACCCATATATATA [CACACA_site2246] | 8.84 ± 0.39
ATAAATTTATATACTTGTACATATATATATTACATA [XGTACX_site6697] | 8.53 ± 0.33
TTTTAGCACTTATTATAAGATATCAAAAAGATGGGT [XGTACX_negctrl_site325] | 8.55 ± 0.36
ACTATCATTTTTTTAACACACAAAAAAAATAAAATA [CACACA_site3519] | 8.43 ± 0.63
TTTGAAATAAAAAGGTGTACACTCGATTAATAAATA [XGTACX_site6943] | 8.7 ± 0.3
TTATAAAAATAATATCGTACAAATGATAAAGATTAA [XGTACX_site4893] | 8.52 ± 0.39
ACATATATATATATATATAATATTTTATATTTATTA [CACACA_negctrl_site713] | 8.24 ± 0.12
TGAATTCGTCAAAAGCGTACATATAATATCTTCTTG [XGTACX_site8842] | 8.69 ± 0.42
AAAATAATGTTTATATGTACATATATATATATATAT [XGTACX_site8815] | 9.96 ± 0.38
CCATTTACCCTTGCCATGCACACTTTTTTATAGAAA [CACACA_site3505] | 9.21 ± 0.29
ATATTTTTTTATAAATGTACAAAAATAATATTGCAT [XGTACX_site7399] | 8.39 ± 0.43
TTTTTATTTAATATTTTAAAAAAAAATCATTTTTAA [XGTACX_negctrl_site207] | 7.83 ± 0.47
TATATAGTAATATATACACACACTTGTCTTGTAAAA [CACACA_site990] | 8.44 ± 0.42
AAAAAATTGACTAATGCACACAATTACATATATATA [CACACA_site1689] | 8.62 ± 0.14
ATTATAAATACACGCACACACACTTATATATATATA [CACACA_site5776] | 9.99 ± 0.15
AATTGTTCTATGATTTGTACACACTTTTTTTTAAAA [XGTACX_site5984] | 8.88 ± 0.43
CAATTTTTCTATCATTGTACTTTTATATAATAGTGT [XGTACX_site1810] | 8.67 ± 0.26
